Experimental data published in paper PMC12136788.
The other results are listed elsewhere or left out.

B1: chr2:241070358:241070359:-_ENSG00000172428_ENST00000607357|hu_mus|motif|central (ssRNA)
RNA: GGGAGUUCUACAGUCCGACGAUCCAGAGACAUCAGUACCCAGUUGGUUCAGACAGUUCCUCUAUUGGUUGACAAGGUCUUCAUUUCGGGUGAUAUCAACACGGUGUCUACAAUCAGCUGGUCGUGUCCCGAGAGACUCCAGACCAACAGAGGAUUGAGCAUCA
B2: chr4:141471443:141471444:+_ENSG00000179387_ENST00000323570|hu_mus|FALSE|FALSE (ssRNA)
RNA: GGGAGUUCUACAGUCCGACGAUCGAGCACAGCAUUGCAAUCCAUCAAGAGUCCUUUGAUCCGCUCGUGAAACUUCUCUCUGUACAAGUUGAAGUACAUAAUGCUUUCUGGCUCUUCCUCAAGCCAAAACUUGUCAAAUUCAUACAACAGAGGAUUGAGCAUCA
B3: chr7:91030085:91030086:-_ENSMUSG00000070462_ENSMUST00000094216|mus_hu|motif|central (ssRNA)
RNA: GGGAGUUCUACAGUCCGACGAUCAAAUACUCCAGUACAUGCAAGGUAAAAACUUGACGUUGGGGGAAAAAAAAAUCACUCGGUAGUGUAAAUUAAAAAAACACACGCUCACAGUAGCUUCCCCCCAUUUGCAAAUCACAUGGCCAACAGAGGAUUGAGCAUCA
B4: chr7:135612270:135612271:-_ENSG00000105887_ENST00000393085|hu_mus|hu_hu_hu_mus_False|28_48 (ssRNA)
RNA: GGGAGUUCUACAGUCCGACGAUCGUUUUUUUCUGAGAUGUUAAAUAGUACUUCAGUGGAAAACAAAACUUAACCUUUUAUUAAUGCAUGUAGUACCAAAAGCAGACCAUGGUUUUACAUUUAUUCAAAAAUAUUAACAUUAAGCAACAGAGGAUUGAGCAUCA
B5: chr11:124637793:124637794:-_ENSG00000120458_ENST00000374979|hu_hu|FALSE|FALSE (ssRNA)
RNA: GGGAGUUCUACAGUCCGACGAUCCUGGGAGCUGAUCUCAGCAUAAUGGUAACGGAUAUCCUCUUUCCAACGGGUGUUAUAACCAAUUCCAAAAAUGGCCAGUUUAUUAGAAAGAUGGAGCCUUGAAAAGUCUGUCCAGCUCUGCAACAGAGGAUUGAGCAUCA
B6: chr11:46405157:46405158:+_ENSG00000110492_ENST00000395566|hu_hu|hu_hu_hu_mus_False|48_98 (ssRNA)
RNA: GGGAGUUCUACAGUCCGACGAUCCCCUCCCCACUUUGGCUGGGGAGUGUGGGCGUGAGAGGACAGGCGUGAUUGACAGAGCUGACAAGCAGACAGAAGGCACUGGUGGGUUAUAUCUUGGGCCUGUGGGAGAGGAGGGCUCCGCAACAGAGGAUUGAGCAUCA
B7: chr10:111893599:111893600:+_ENSG00000148700_ENST00000277900|hu_hu|motif|central (ssRNA)
RNA: GGGAGUUCUACAGUCCGACGAUCAUUCAGACAGAUAGCUGUUUAUGGUGAAUUAUAAUAAUACUUCAUGAGGGCAGAGCGGAUUAAAACUAGUAAUUGCUUAAAAUUCAAAGCCAUUUCUGGACAUAUAAAAUGAGAGAUGAACAACAGAGGAUUGAGCAUCA
B8: chr11:77336104:77336105:-_ENSG00000074201_ENST00000525064|hu_mus|hu_hu_hu_mus_False|18_28 (ssRNA)
RNA: GGGAGUUCUACAGUCCGACGAUCCUCACACAUUGCUGUGAACAUCGCCUCCAAUGCUGACUUAUCACUGGGCACAAAUCGAAAUUCAGAAAUGGGUUCAACAUCAUCAUCACUGUCUUCCUCUUCUUCAGAGAGAGGUUCUUUCAACAGAGGAUUGAGCAUCA
B9: chr10:112343607:112343608:+_ENSG00000108055_ENST00000361804|hu_hu|motif|central (ssRNA)
RNA: GGGAGUUCUACAGUCCGACGAUCUUCUAUUUUUUCAAGCAGCUUCUGCCUCUCUUUUAAUAAACGUUUCCUUUGUUCACGGUUGCCUGCUAGUUCAUCUUGUAAAUCCUUGGCUUUAAGCUCCAACUUAGUCCUCUGCUUAAUCAACAGAGGAUUGAGCAUCA
B10: chr4:83987663:83987664:+_ENSG00000138663_ENST00000264389|hu_mus|motif|central (ssRNA)
RNA: GGGAGUUCUACAGUCCGACGAUCGCGUCCUUCCGUUAUCAUCUGAGAUGCUAUCUUUUCUGCCUUAGCUGCAGGGAUCUCGGAAAGAGCUCCAAGUUCUUCAAAGGUGAUAUUGUUAUAUAAUUUGCUUGCUGACAACAAAUUCAACAGAGGAUUGAGCAUCA
B11: chr1:39494447:39494448:+_ENSG00000168653_ENST00000372967|hu_mus|hu_hu_hu_mus_False|78_98 (ssRNA)
RNA: GGGAGUUCUACAGUCCGACGAUCGCACCGAGCGGCGAUCUUGUAGGGCUGUUCUGCACUCUGGAUUAUAAAGUGCCGGUCCAGGCUGAUGCCCAGCUUUUUCUGUAUGUCAAGGAAAGGCAUGGCUCUGCAGUGCCCUUGUCACAACAGAGGAUUGAGCAUCA
B12: chr18:52893488:52893489:-_ENSG00000196628_ENST00000354452|hu_hu|hu_hu_hu_mus_True|1_1 (ssRNA)
RNA: GGGAGUUCUACAGUCCGACGAUCUAUUUAGACCAUUUCCGCGGAGUUAUGGCAUUUACUCAGUGCUGAUAGGUGGAAAAACUACUUCAACAGGGAUUUUUUUUUUCCUUAAUACAUGCCAAGAUUGUGUGGCUGUCAAAAAUACAACAGAGGAUUGAGCAUCA
B13: chr2:183789671:183789672:-_ENSG00000061676_ENST00000360982|hu_mus|motif|central (ssRNA)
RNA: GGGAGUUCUACAGUCCGACGAUCUUAUGGCAGGUACACUUGAAUUUCAAAUGUUAAAACAUAUAAAAAGUGAUUCGGGACGGCCAUCUGUAUCAACAGUUGCCAAGUGUCUGGUUGUUUAUUAUACAGCAGGGUAAAGGCAGUCAACAGAGGAUUGAGCAUCA
B14: chr11:4127340:4127341:+_ENSG00000167325_ENST00000300738|hu_mus|hu_hu_hu_mus_False|68_68 (ssRNA)
RNA: GGGAGUUCUACAGUCCGACGAUCGGCAUAGUCAGGGUGCUUCGUGGUCAAGGUCGCGGCUGUCUCAGCAGCCAAAGUGUCCAGUUCCACUGUGGUGACCCCACUAUAUAGGCCUUGGAUUACUUUCAUGGUGAUCUGAGCAGGCAACAGAGGAUUGAGCAUCA
B15: chr3:9412954:9412955:+_ENSG00000134077_ENST00000452837|hu_hu|motif|central (ssRNA)
RNA: GGGAGUUCUACAGUCCGACGAUCUGUUGAUACAUCCUCUUUGAUGGCUGGAUUUUCAUAAUAAUCUAAGAUAUGAGAAUCGGAAGCAUGGCUAGUGAACUCUUUUUUAACAUUUCUCUGAUCGAUUUUGACUUCUUGUCCAUUCAACAGAGGAUUGAGCAUCA
B16: chr5:34943985:34943986:+_ENSMUSG00000029106_ENSMUST00000114338|mus_mus|FALSE|FALSE (ssRNA)
RNA: GGGAGUUCUACAGUCCGACGAUCGUGGUUGGAGGUGGUGAGGUCACCACUGCGGCCCGAGUGUCACCAUUCAUUGCACAAUUUUCCUAGGGUCCUCCGCGGAGAAUCGGGGAGAGAGCACGGCUUCCCGGGUCCGAGUGCGGCCAACAGAGGAUUGAGCAUCA
B17: 150445528_150445648_4168_CDS_ENSG00000163125_ENST00000369068|human|control|control (ssRNA)
RNA: GGGAGUUCUACAGUCCGACGAUCGCUGAUGGUGUCUCUGUGUGAGGGACCCAAGGGGGGGCCACUGCUGCUGUUGCUGCCUCCCCCACCUCCUCCUCCAUGGGGUGGGCCCAGGUGUUCCAGAGAAUGGGAGGGUAGGGUGAGCAACAGAGGAUUGAGCAUCA
B18: chr12:105536279:105536280:+_ENSG00000136051_ENST00000332180|hu_mus|hu_hu_hu_mus_True|18_78 (ssRNA)
RNA: GGGAGUUCUACAGUCCGACGAUCAGCACUGAACAUGUAAUGUAAUCUGGCUGCAUCAACAGCAUUUUCAUAUACAUCAUCUAAAUAAAUCGGGAAGACAGCGCGAUGCCAGUAUAAAAAACAACAGUCACACUGUGCUUGGACCAACAGAGGAUUGAGCAUCA
B19: chr17:64801638:64801639:+_ENSG00000154229_ENST00000413366|hu_mus|hu_hu_hu_mus_False|28_78 (ssRNA)
RNA: GGGAGUUCUACAGUCCGACGAUCUAUAUAUAUAUAUACAUAUGUACACAUAUAUAGUAAGAGCCUAGUUAAACGUGUAAAGUAGCCAUUCAUUUUUAAAAUUACAUCUACAUUUAAAAAUUAAUAUAUCUGAUAGAGUGCCAGCAACAGAGGAUUGAGCAUCA
B20: chr10:126492284:126492285:-_ENSMUSG00000040502_ENSMUST00000040307|mus_hu|FALSE|FALSE (ssRNA)
RNA: GGGAGUUCUACAGUCCGACGAUCAAAGUGCCCAGGCUUCAGGCUGACCCACAUUGUAAACAGUCCUUCCCAAAUCUUUUCUCUAUAAACAACAGUCCUCUAUGCUGCUGCCUCCAAACAUAAUGCCAUCCAUUAAUACCACUGCAACAGAGGAUUGAGCAUCA
B21: chr8:117878989:117878990:-_ENSG00000164754_ENST00000297338|hu_hu|hu_hu_hu_mus_True|28_58 (ssRNA)
RNA: GGGAGUUCUACAGUCCGACGAUCCCAGAGGCCCUCGUUUACUGAGGACAAAAUGUGCGUAGAACAUUUUUCUUAUUGGCUAUGAAAUAAGAAGAAACCUGGAUCUCCCGCUGGGAGCGGGAGGGGUGGGUGGCCCGGGGAGGGCAACAGAGGAUUGAGCAUCA
B22: 34387834_34398913_243_CDS_ENSG00000134779_ENST00000590842|human|control|control (ssRNA)
RNA: GGGAGUUCUACAGUCCGACGAUCGUGGAAGCCAUUGGUCAUCAGGUAAAAGUUCUUCACAUCUUCAGGCAUCACACAGUUAUUCUUUUGUUCCCAGGAAGAAAUCAUAUGACGUUCAGCAGGAGGCUUUUCUAUGAUGGUCACCAACAGAGGAUUGAGCAUCA

Target: T1, UNK ZnF1-3 (human, UniProt Q9C0B0 31-174)
T1 sequence: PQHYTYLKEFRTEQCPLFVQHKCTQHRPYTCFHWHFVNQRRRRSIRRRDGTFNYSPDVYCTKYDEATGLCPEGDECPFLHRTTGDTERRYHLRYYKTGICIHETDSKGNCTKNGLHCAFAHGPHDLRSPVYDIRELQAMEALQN
Experiment: nsRBNS (natural sequence RNA bind-n-seq); RBNS binding buffer (assumed for nsRBNS): 25 mM Tris pH 7.5, 150 mM KCl, 3 mM MgCl2, 0.01% Triton X-100, 500 ug/ml BSA, 20 U/ml SUPERase-In, 4 C; UNK is unkempt and MSI1 is Musashi-1; names of the RNAs are library labels; protein concentration not given here; high values mean tight binding

Binder	binding signal
B1	0.882 enrichment R
B2	1.13 enrichment R
B3	1.77 enrichment R
B4	1.4 enrichment R
B5	0.772 enrichment R
B6	2.2 enrichment R
B7	3.18 enrichment R
B8	0.931 enrichment R
B9	0.373 enrichment R
B10	0.648 enrichment R
B11	0.551 enrichment R
B12	1.1 enrichment R
B13	0.93 enrichment R
B14	0.975 enrichment R
B15	0.605 enrichment R
B16	1.49 enrichment R
B17	0.975 enrichment R
B18	2.59 enrichment R
B19	1.79 enrichment R
B20	1.49 enrichment R
B21	1.37 enrichment R
B22	1.34 enrichment R
